± gives the uncertainty stated by the source. Over roughly 9,900 compounds, “viability index relative to DMSO control” has its median near 1; the lowest 2% begin near 0.85. Some of the results follow.

This experiment relates to Plasmodium falciparum NF54 stage V gametocytes. The experiment is described as follows: viability index relative to DMSO control (fraction); higher = less gametocyte killing. The settings on record: 2.5 µM, library set: Broad Institute DOS, incubation time: 72 h. In a few lines:
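Compound at 2.5 µM was incubated for 72 hr at 37°C under low oxygen with P. falciparum NF54 stage V gametocytes (0.75% gametocytemia, 1.25% hematocrit, 10 µl, serum-free screening medium) in 1,536-well plates. Staining used 3 µl of 2.5 µM MitoTracker Red CMXRos plus 0.13% saponin for one to two hours, and red particles of 20–70 µm2 were counted in one imaged field per well. Each viability index is that count relative to the plate mean of solvent-only wells.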
Regarding `COc1cccc(CN2C[C@@]3(C2)CN([C@@H](CO)c2[nH]c4cc(OC)ccc4c32)C(=O)C2CC2)c1`, the viability index is 0.956 ± 0.11.

The compound `CC(=O)N1[C@@H](CO)[C@@H](c2ccccc2)C12CN(S(=O)(=O)c1ccccc1)C2` returned a viability index of 1.08 ± 0.14.

As for `C[C@H]1CN([C@@H](C)CO)C(=O)CCCn2cc(nn2)CO[C@@H]1CN(C)C(=O)Nc1ccc2c(c1)OCO2`, the viability index turned out to be 0.999 ± 0.0048.

`CN1C(=O)c2cc(NC(=O)c3ccc4c(c3)OCO4)ccc2OC[C@@H]2O[C@@H](CC(=O)O)CC[C@@H]21` displayed a viability index of 1.13 ± 0.028.

Consider `O=C(N[C@H]1CC[C@@H](CCNS(=O)(=O)c2ccc(F)cc2)O[C@@H]1CO)C1CCC1`, for which the viability index worked out at 1.15 ± 0.12.

`COc1ccc2c3c([C@@H](CO)N(C[C@]33CN(C)C3)C(=O)Cc3ccccc3)n(C)c2c1` displayed a viability index of 0.9755 ± 0.00056.

Regarding `COc1ccccc1-c1ccc([C@H]2[C@@H](CO)N(C(C)=O)[C@@H]2CN(C)C(C)=O)cc1`, the viability index was 0.9746 ± 0.009.

The compound `O=C(C[C@H]1C[C@H]2c3cc(NC(=O)NC4CCCC4)ccc3O[C@H]2[C@@H](CO)O1)NCc1ccccc1F` displayed a viability index of 1.15 ± 0.051.

For `CO[C@@H](CN(C)C(=O)Nc1ccc(Cl)cc1)[C@@H](C)CN(Cc1ccccc1Cl)[C@@H](C)CO`, the viability index was 1.01 ± 0.074.

Compound `Cc1noc(C)c1NC(=O)Nc1ccc2c(c1)C(=O)N([C@H](C)CO)C[C@H](C)[C@@H](CN(C)Cc1ccc3c(c1)OCO3)OCCCC[C@H](C)O2` returned a viability index of 1.05 ± 0.064.

`Cc1ccc(S(=O)(=O)Nc2ccc3c(c2)CC(=O)N([C@H](C)CO)C[C@H](C)[C@@H](CN(C)S(=O)(=O)c2ccccc2)O3)cc1` came in with a viability index of 0.936 ± 0.055.

Consider `O=C(C1CCOCC1)N1CC2(C1)[C@@H](c1ccccc1)[C@@H](CO)N2Cc1ccccc1F`, for which the viability index turned out to be 1.01 ± 0.024.

`CCC(=O)N1C[C@@H](C)[C@@H](OC)CN(C)C(=O)c2ccc(NC(=O)CC(F)(F)F)cc2OC[C@@H]1C` had a viability index of 1.11 ± 0.03.

For `CC1C=NC(S(=O)(=O)N2CC[C@@H]3[C@@H](CO)N(C)c4ccc(C5=CCCCC5)cc4[C@@H]32)=N1` (stereo not given in full), the viability index amounted to 1.019 ± 0.0095.

As for `CCCNC(=O)N1[C@@H](CO)[C@@H](c2ccccc2)C12CN(C(=O)C1CCCCC1)C2`, the viability index was found to be 1.08 ± 0.041.

Regarding `C[C@H]1CN([C@@H](C)CO)C(=O)c2cccc(NS(=O)(=O)c3cn(C)cn3)c2O[C@@H]1CN(C)Cc1ccc(Oc2ccccc2)cc1`, the viability index was found to be 1.01 ± 0.15.

Consider `CS(=O)(=O)N1CC(=O)N2[C@H](C1)[C@@H](c1ccc(Br)cc1)[C@@H]2CO`, for which the viability index was 1 ± 0.062.

Turning to `O=C(NCCCN1CCOCC1)[C@@H]1[C@@H](CO)[C@@H]2Cn3c(ccc(C4=CCCCC4)c3=O)[C@H]1N2`, the viability index came to 1.03 ± 0.1.

For `CCN1CC(=O)N2[C@@H](CO)[C@H](c3ccc(Br)cc3)[C@@H]2C1`, the viability index came to 1.02 ± 0.11.

`COc1ccc2c3c([nH]c2c1)[C@@H](CO)N(C[C@]31CCN(Cc2ccncc2)CC1)C(=O)CC1CC1` registered a viability index of 0.998 ± 0.12.
